Measurements as given in PubChem BioAssay AID686978 (National Center for Advancing Translational Sciences (NCATS), 2013).
The campaign covered roughly 420,000 compounds. About 64,000 (15%) were called active. Inconclusive means that the source gave no clear call. Such entries were picked first, then a sample of the others. Calls follow the shape of the dose curve; as a rule, active = well fitted inhibition curve with a large enough effect; inconclusive = small, poorly fitted or top-dose-only effect; inactive = flat fitted curve, though single readings scatter. No potency is given beside an inconclusive call; the fits are too rough.

Assay: qHTS for Inhibitors of human tyrosyl-DNA phosphodiesterase 1 (TDP1): qHTS in cells in absence of CPT; also: nearly all actives have a fitted effect of over 55% in size
Conditions: DT40 Tdp1-/- hTDP1 cells, no CPT, ATP luminescence, 48 h; activity change, negative = growth inhibition: at 46.2 µM (top of the series) unless noted
Summary of the method: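 Compound effects on proliferation are scored in DT40 Tdp1-/-;hTDP1 cells in the absence of CPT. ATP levels (CellTiter-Glo luminescence) are recorded after a ≥48 hr, 37 °C incubation.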
% is scaled to controls: 0 for no effect and ±100 for the full control effect; potency is read from the fitted curve at half-maximal effect; tags tell the direction and shape of the fitted curve.

Row | SMILES | Potency | activity change, negative = growth inhibition
1 | CC1CCN(c2ccccc2NC(=S)NC(=O)C(C)(C)C)CC1 | inconclusive [inhibitor, single point] | 
2 | C=C1C(=O)O[C@H]2[C@H]1CC/C(C)=C\CC[C@@]1(C)O[C@@H]21 | active: 2.66 µM | 
3 | COc1cccc(NC(=O)C2(C)CCN2Cc2ccc(-c3ccccc3)o2)c1 (stereo unspecified) | inconclusive [inhibitor, single point] | 
4 | COc1ccc(/C=C(/CC(=O)Nc2ccc(C)cc2)c2nc3ccccc3s2)cc1 | inconclusive [inhibitor, single point] | 
5 | CCOC(=O)c1cc(C#N)c(N2CCN(c3ccc(OC)cc3)CC2)[nH]c1=O | inconclusive [inhibitor, single point] | 
6 | COc1ccc(Cl)cc1C(=O)OCC(=O)NCc1cccs1 |  | inactive: 22.9%
7 | COC(=O)c1ccccc1NC(=O)C1CCN(C(=O)c2ccc(OC)cc2)CC1 |  | inactive: -2.6%
8 | Nc1ncncc1-c1ccc2ccccc2c1 | inconclusive [inhibitor, partial curve, poor fit] | 
9 | CCCCNS(=O)(=O)c1ccc(Br)cc1N1CCC[C@H]1CO |  | inactive: -26.5%
10 | Cc1ccccc1NC(=O)CSc1cn(CC(=O)N(C(C)C)C(C)C)c2ccccc12 | active: 14.6 µM | 
11 | COCCNC(=O)C1CCN(c2nc3ccccc3nc2C(F)(F)F)CC1 |  | inactive: -20.4%
12 | CCN1C(=O)Nc2cccc3cccc1c23 | inconclusive [inhibitor, single point] | 
13 | CCc1ccccc1NC(=O)c1ccc(CN2C(=O)CCn3nc(C)cc32)cc1 |  | inactive: -7.58%
14 | O=C1C(=O)N(CCCn2ccnc2)C(c2cccnc2)/C1=C(/O)c1ccc(F)cc1 (stereo unspecified) |  | inactive: -3.53%
15 | CCCC1c2ccc(C)n2CCN1C(=O)Nc1ccc(F)cc1 (stereo unspecified) | inconclusive [inhibitor, single point] | 
16 | CC(=O)Nc1nnc(-c2ccccn2)o1 |  | inactive: -20.4%
17 | CCOC(=O)/C(=C\C=C1/Sc2cc(OCC)c(OCC)cc2N1CC)C(C)=O | active: 2.31 µM | 
18 | CC(O)(CS(=O)(=O)Cc1ccc(Cl)cc1)C(=O)Nc1cccc(C(F)(F)F)c1 (stereo unspecified) | inconclusive [inhibitor, single point] | 
19 | O=C(Nc1cccc(O)c1)C1CC(c2ccc(Cl)cc2)=NO1 (stereo unspecified) |  | inactive: 6.27%
20 | COCCn1c(=O)c(CCc2ccccc2)nc2cnc(Oc3cccc(Cl)c3)nc21 | inconclusive [inhibitor, single point] | 
21 | Cc1ccc(OCCOC(=O)CCc2nc3ccccc3c(=O)[nH]2)cc1 |  | inactive: -8.85%
22 | Cn1cc(CNC(=O)c2cc(-c3ccc(Br)cc3)nc3ccccc23)cn1 | inconclusive [inhibitor, single point] | 
23 | Fc1ccc(NC(=S)NC2CCCCC2)c(F)c1F | active: 20.6 µM | 
24 | CCOP(=O)(OCC)C(Nc1ccc(OC)cc1)c1ccco1 (stereo unspecified) |  | inactive: 3.03%
25 | COc1cc2c(cc1OC)n(Cc1ccc([N+](=O)[O-])cc1)c(=O)n1nc(-c3ccccc3)nc21 | inconclusive [inhibitor, partial curve] | 
26 | Cc1cc(C)c(S(=O)(=O)Nc2ccccc2C(=O)N2CCCC2)c(C)c1 | inconclusive [inhibitor, single point] | 

Row | SMILES | Potency | activity change, negative = growth inhibition
27 | O=C(Cn1nc(Cc2ccncc2)c2ccccc2c1=O)Nc1cccnc1Cl |  | inactive: 13.1%
28 | CC(=O)Nc1ccc(CN2CCc3c([nH]c4ccccc34)C2c2ccccn2)cc1 (stereo unspecified) | active: 20.6 µM | 
29 | Cc1cccc(NC(=S)NC2CC3CCCC(C2)N3Cc2ccccc2)c1C (stereo unspecified) | inconclusive [inhibitor, single point] | 
30 | COc1ccccc1NC(=S)N(Cc1ccco1)Cc1cc2cc(C)cc(C)c2[nH]c1=O | active: 10.3 µM | 
31 | Cn1cc(C(=O)OCC2CCN(CCNS(C)(=O)=O)CC2)c2ccccc21 | inconclusive [inhibitor, partial curve, poor fit] | 
32 | CN(C)c1nc(=Nc2cccc(Cl)c2)ss1 | active: 0.206 µM | 
33 | CCCCOc1ccc(S(=O)(=O)NNC(=O)c2cc3ccccc3o2)cc1 | inconclusive [inhibitor, single point] | 
34 | COc1ccc(OC)c(CN2CCOc3ccc(CN4CCC(O)(c5cccnc5)CC4)cc3C2)c1 | inconclusive [inhibitor, single point] | 
35 | Cc1oc(CN2CCOCC2)cc1C(=O)O |  | inactive: 0.308%
36 | O=C(Nc1ccccc1C(F)(F)F)c1ccc2oc(=O)c(S(=O)(=O)c3ccc(F)cc3)cc2c1 |  | inactive: -22.8%
37 | CC(NC(=O)Cc1cccs1)C(c1cccs1)N1CCN(c2ccccc2)CC1 (stereo unspecified) | inconclusive [inhibitor, single point] | 
38 | CNc1cc(-c2ccccc2C)ncn1 |  | inactive: 1.56%
39 | O=C1c2ccccc2-c2c1c1ccccc1c(=O)n2CCO | active: 7.31 µM | 
40 | COc1ccc(NC(=O)c2c(NC(=O)COc3ccccc3)sc3c2CCC(C)C3)cc1 (stereo unspecified) |  | inactive: -25.7%
41 | CC12CCC(=O)N1C(C(=O)NNC(=O)COc1ccccc1F)CS2 (stereo unspecified) | inconclusive [inhibitor, single point] | 
42 | CC(C)(C)NC(=O)C1c2ccccc2OCC(=O)N1Cc1ccccn1 (stereo unspecified) |  | inactive: -6.83%
43 | COc1ccc(NC(=O)Cn2c(=O)n(Cc3ccco3)c(=O)c3ccccc32)cc1 |  | inactive: -3.08%
44 | Cc1ccc(-c2nc3c4ccccc4ccn3c2Cc2ccccc2)cc1 | inconclusive [inhibitor, partial curve, poor fit] | 
45 | COc1ccc2nc(NC(=O)CSc3nccc(C)n3)sc2c1 | inconclusive [inhibitor, single point] | 
46 | COc1ccccc1C(=O)NC(=S)Nc1ccc2[nH]c(=O)[nH]c2c1 |  | inactive: 14.2%
47 | Cc1ccc2nc(-c3cccc(S(=O)(=O)N4CC(C)OC(C)C4)c3)cn2c1 (stereo unspecified) | active: 14.6 µM | 
48 | O=C(NCCC1=CCCCC1)c1ccc2c(=O)n3nc(Nc4ccccc4)sc3nc2c1 | active: 3.66 µM | 
49 | CCCNC(=O)C1(C)CCCN(C(=O)c2cccc(C#N)c2)C1 (stereo unspecified) |  | inactive: -6.77%
50 | COc1ccc(NC(=O)C2CCN(C(=O)c3cccs3)CC2)cc1 |  | inactive: -20.9%
51 | COc1ccccc1CNC(=O)CN1CCN(S(=O)(=O)c2cccs2)CC1 |  | inconclusive: -30.9% [inhibitor]
